# About 5,300 (4.4%) of roughly 120,000 compounds were called active. Inconclusive results, whose numbers are uncertain, are shown with a selection of clear calls. The call rests on the fitted dose curve; in most records, active means well fitted inhibition curve with a large enough effect; inconclusive means small, poorly fitted or top-dose-only effect; inactive means no such curve, though single readings can be large or run the other way. Potencies beside an inconclusive call are fits to weak or partial responses and may not hold up.
# Test: qHTS Primary assay for Inhibitors of Plasmodium falciparum Dd2 growth in vitro; further: nearly all actives have a fitted effect of over 65% in size;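 on activity, negative = inhibition: plate controls were DMSO vehicle for no effect and reference drug for full effect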
# Settings: P. falciparum Dd2 growth, SYBR Green, 72 h; activity, negative = inhibition: at 28.9 µM (top of the series) unless noted; series mostly up to 28.9 µM
# Procedure, shortened: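 Readout: SYBR Green fluorescence, 485 nm excitation, 535 nm emission, after ~16 h lysis at 37C. Before that, Dd2-infected red cells (2.5% hematocrit) grew 72 h with compound, 29 uM top final concentration.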
# Potency means the concentration at half of the fitted maximal effect; tags describe the fitted curve by direction and shape.
SMILES,Potency,"activity, negative = inhibition"
Cc1cccc(-n2nnnc2S(C)(=O)=O)c1,active: 11.2 µM,–
COc1ccccc1C(=O)NCc1nnc2c(-c3nc(C4CC4)no3)cccn12,"inconclusive: 0.708 µM [inhibitor, full curve, poor fit]",–
Cc1cc(N2C[C@H](NC(=O)CN3CC(=O)NC3=O)[C@@H](C3CC3)C2)ncn1,inactive,–
CCn1cc(C(=O)NCc2ccccc2)c(=O)c2cc(S(=O)(=O)N3CCCCCC3)ccc21,"inconclusive: 17.8 µM [inhibitor, single point]",–
CCCNC(=O)CCc1c(C)nc2nc(-c3cc(OC)cc(OC)c3)nn2c1C,"inconclusive: 7.08 µM [inhibitor, partial curve, poor fit]",–
Cc1ccc(OCc2nc3ccccc3n2Cc2ccccc2Cl)cc1,"inconclusive: 17.8 µM [inhibitor, single point]",–
CNc1ncncc1-c1nc(-c2ccccc2)no1,"inconclusive: 2.51 µM [inhibitor, partial curve, poor fit]",–
Cc1ccccc1CCN1CCCC(CN(C)C(=O)c2cc3ccccc3[nH]2)C1 (stereo unspecified),"inconclusive: 1.78 µM [inhibitor, partial curve, poor fit]",–
Cc1ccc(-c2cc(N3CCCN(C(=O)CCc4ccccc4)CC3)n[nH]2)cc1C,inactive,–
O=C(c1cnc[nH]1)N1C[C@@H](COCC2CC2)[C@H](c2ccccn2)C1,inactive,–
O=c1c(S(=O)(=O)c2ccccc2)cn(Cc2ccc(F)cc2)c2cc(N3CCCCC3)c(F)cc12,"inconclusive: 11.2 µM [inhibitor, single point]",–
COc1ccc2c(c1)CCc1c(C(=O)Nc3c(C)nn(Cc4ccc(C)cc4)c3C)noc1-2,"inconclusive: 12.6 µM [inhibitor, single point]",–
O=C(Cn1c2c(c(=O)n1Cc1ccccc1)CCN(Cc1ccccc1)C2)NCc1ccc2c(c1)OCO2,inactive,–
Cc1cc(NC(=O)c2cccc(Cl)c2)ccc1-c1cc2ccccc2oc1=O,"inconclusive: 10 µM [inhibitor, single point]",–
C=CC[C@H]1CC(C)=C[C@H](CC=C)N1Cc1ccc(CN(C)S(C)(=O)=O)o1,"inconclusive: 12.6 µM [inhibitor, single point]",–
COc1cc(C(=O)N2[C@@H]3CC[C@H]2CC(NC(=O)c2ccncc2)C3)cc(OC)c1OC (stereo partly specified),inactive,–
COCC(=O)N[C@H]1C[C@@H](Cc2cc(CN(C)Cc3ccccc3)on2)C1(C)C,active: 8.91 µM,–
CCN(C(=O)CN1C(=O)NC2(CCS(=O)(=O)CC2)C1=O)c1cccc(C)c1,"inconclusive: 10 µM [inhibitor, single point]",–
Cc1ccc(CN2C(=O)[C@@H]3C[C@@H](O)CN3C3(CN(C4CCC4)C3)C2=O)o1,"inconclusive: 11.2 µM [inhibitor, partial curve]",–
COc1ccc(Nc2cc(C(=O)NCCCN3CCN(c4ccc(OC)cc4)CC3)c3ccccc3n2)cc1,"inconclusive: 17.8 µM [inhibitor, single point]",–
O=C(c1n[nH]c2ccccc12)N1CCc2c(nc3cc(-c4ccccc4Cl)[nH]n3c2=O)C1,"inconclusive: 5.62 µM [inhibitor, partial curve, poor fit]",–

SMILES,Potency,"activity, negative = inhibition"
CCN(CC)C(=O)[C@@H]1C[C@H](NC(=O)COC)CN1Cc1ccsc1,"inconclusive: 3.16 µM [inhibitor, single point]",–
COCCN1C(=O)CC[C@]2(C(=O)NC3CCCCCC3)CCCC[C@@H]12,inactive,–
CN(C)C[C@@H]1CN(Cc2ccccn2)C[C@H]1NC(=O)c1ccc(Cl)cc1,"inconclusive: 10 µM [inhibitor, partial curve]",–
O=C(C1CCCC1)N1CCC2(CC1)CC(=O)N(c1ccccc1)c1ccccc1O2,"inconclusive: 11.2 µM [inhibitor, partial curve]",–
COc1ccccc1CNC[C@H]1O[C@H](Cc2cc(-c3ccccc3)on2)CC[C@@H]1O,"inconclusive: 3.16 µM [inhibitor, partial curve, poor fit]",–
O=C1CS(=O)(=O)C2(C(=O)N(Cc3ccccc3)c3ccccc32)N1c1ccccc1 (stereo unspecified),"inconclusive: 7.94 µM [inhibitor, partial curve, poor fit]",–
Cc1ccc(CCNC(=O)c2ccc3c(c2)nc2n3CCC(C)C2)cc1 (stereo unspecified),inactive,–
COc1cc2c(cc1OC)C(COc1ccccc1OC)N(C(=O)COc1ccc(Cl)cc1)CC2 (stereo unspecified),active: 8.91 µM,–
O=C(N1CCOCC1)N1CCN(C2CCNCC2)C(=O)C1,inactive,–
Cc1ccc(C(=O)N2CCC(N3C(=O)C4(CCCC4)C3c3scnc3C)CC2)cn1 (stereo unspecified),"inconclusive: 8.91 µM [inhibitor, partial curve]",–
COc1cccc(CN2CCCCCCNC(=O)[C@@H]3CCC[C@@H]32)n1,"inconclusive: 1.58 µM [inhibitor, partial curve, poor fit]",–
CCOC(=O)C1(C)C=C(Nc2cccc(C(=O)O)c2)C(=O)N1c1cccc(C(=O)O)c1 (stereo unspecified),inactive,–
COc1ccc(-c2noc(-c3ccc(N4CCN(c5ccccc5)CC4)c([N+](=O)[O-])c3)n2)cc1OC,–,inconclusive: -158% [inhibitor] [at 5.79 µM]
CC(C)C1CN(C(=O)OC(C)(C)C)CCN1 (stereo unspecified),"inconclusive: 17.8 µM [inhibitor, partial curve]",–
COc1ccc(Cl)cc1NC(=O)CCC1CCCN(C(=O)c2ccnn2C)C1 (stereo unspecified),"inconclusive: 10 µM [inhibitor, single point]",–
O=C1NC2(CN([S+](=O)([O-])c3ccccc3)C2)Oc2ccccc21,"inconclusive: 10 µM [inhibitor, partial curve, poor fit]",–
CCCCc1nn2c(=O)cc(COC(=O)c3ccc(NC(=O)c4ccccc4C)cc3)nc2s1,"inconclusive: 11.2 µM [inhibitor, single point]",–
COc1ccc(Cl)cc1-c1ccc2c(c1)C(=O)N1CCN(C(=O)c3cccs3)C[C@@H]1C(=O)N2,inactive,–
CCCNC(=O)[C@@H]1CCCN1[C@@H](C(=O)NC)c1ccccc1,inactive,–
CCc1ccccc1NC(=O)c1sc2nc3c(cc2c1N)CN(Cc1ccccc1)CC3,"inconclusive: 1 µM [inhibitor, single point]",–

# Reference: PubChem BioAssay AID1347417 (National Center for Advancing Translational Sciences (NCATS), 2020)
